The list shows a part of the results. At the low end of the ranking the order means little.

For the test, the system named is T1, GST-NbGlk1(82-244).
T1 sequence: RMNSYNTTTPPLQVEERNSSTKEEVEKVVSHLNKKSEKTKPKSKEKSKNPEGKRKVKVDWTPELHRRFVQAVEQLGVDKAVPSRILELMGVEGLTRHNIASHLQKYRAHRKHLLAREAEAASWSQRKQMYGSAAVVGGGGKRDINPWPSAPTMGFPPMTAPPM
Kind of test: protein-binding microarray.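 Note: rank-based score ranging −0.5 to +0.5 with E above 0.45 taken as significant binding.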 To be noted: NbGlk1 is a Golden2-like transcription factor of Nicotiana benthamiana; high values mean tight binding; most listed sequences are background and not binding sites; double strand, one strand shown.
Turning to ATGTATTA, the binding signal came out at 0.091 E-score.
The sequence ATCAAAAG displayed a binding signal of 0.0958 E-score.
The result for ACTTCACG reads -0.25 E-score; that for AATTCCAC, 0.0356 E-score; that for AGTATCAC, 0.103 E-score.
In the case of ACAAGTGC, the binding signal was -0.0689 E-score.
ATCTCTAG displayed a binding signal of 0.294 E-score.
As for AACGGTAC, the binding signal was found to be 0.0846 E-score.
The result for AATGGAAC reads -0.14 E-score; that for AATGTTAA, 0.188 E-score.
The result for AGGTTACG reads -0.0865 E-score; that for ACCAAGTA, -0.122 E-score.
The result for ATGAAAGA reads 0.122 E-score.
As for AGAGAACC, the binding signal was -0.0437 E-score.
Under AGTTGATG stands -0.153 E-score.
As for ACCAGTGA, the binding signal is -0.216 E-score.
On to ACGCCTGC, for which the binding signal was -0.274 E-score.
AGAGGCCG: the binding signal was -0.104 E-score.
Under ACACCAGG stands -0.199 E-score.
The result for AAATATCC reads 0.42 E-score.
In the case of CACGTTAG, the binding signal was -0.0703 E-score.
The result for ATTCGAAA reads 0.208 E-score; that for ATCGCTAC, 0.141 E-score; that for AGTTTAGG, -0.0187 E-score.
The result for CACACGAA reads -0.053 E-score.
The result for AGGGATCG reads 0.0562 E-score.
With AGAAGAGG, the binding signal is -0.191 E-score.
As for AGTGCGTA, the binding signal amounted to 0.013 E-score.
The result for CACCATAA reads 0.0187 E-score; that for CAAAGAGA, -0.0263 E-score; that for AGCCGTCC, -0.132 E-score.
For the sequence ACCGTACA, the binding signal was -0.0535 E-score.
Consider CACCTAAA, for which the binding signal is -0.0298 E-score.
The result for AACGGAGA reads 0.0976 E-score.
On to AATACCCC, for which the binding signal is -0.128 E-score.
Under CAGACCTG stands -0.0928 E-score; under AATCGGTA, 0.257 E-score.
In turn, AATCGACG showed a binding signal of 0.243 E-score.
The result for AATTTCTC reads 0.167 E-score; that for CACCTTTA, 0.0328 E-score.
As to ACAGCACG, the binding signal is -0.144 E-score.
On to ACCCGCCC, for which the binding signal came to 0.000507 E-score.
Under ACCTTCCA stands -0.113 E-score.
Under CAATGGAA stands -0.0897 E-score; under AAGAGGCC, -0.229 E-score; under ACAATGCA, 0.0174 E-score.
On to AACTCCGA, for which the binding signal was -0.14 E-score.
Under ACCGTCGA stands -0.188 E-score.
The result for ACATAGAA reads 0.0384 E-score.
Sequence AACCAATT came in with a binding signal of 0.0107 E-score.
Under AATTTGAA stands 0.171 E-score; under AAGTGATA, 0.172 E-score.
The sequence ATTTCTCA showed a binding signal of 0.248 E-score.
Turning to AAACCACC, the binding signal was -0.223 E-score.
Consider ACGACTCT, for which the binding signal was -0.043 E-score.
AGCTAATA showed a binding signal of 0.107 E-score.
The result for AACAACGG reads -0.0804 E-score; that for AGGTTAGA, 0.0714 E-score.
Under AAGCAACG stands -0.168 E-score; under ACTCTCTC, -0.173 E-score; under ATTGATCG, 0.036 E-score.
The result for CACACAAA reads 0.111 E-score; that for AATCGGCA, 0.245 E-score; that for AGCCTTGG, -0.318 E-score.
Take ACCGAGTA: the binding signal is 0.0565 E-score.
Take ACGGTGAA: the binding signal is -0.00403 E-score.
The result for CACACAGA reads 0.201 E-score; that for AAGCTTCT, -0.0531 E-score.
Under AGAGGACA stands -0.0966 E-score.
Take CACATGAC: the binding signal was found to be 0.0194 E-score.
Regarding ACGAAAAG, the binding signal was -0.0403 E-score.
ATTCCAAC showed a binding signal of 0.214 E-score.
Under AAGGGTCG stands -0.197 E-score; under AAGTTGCA, -0.0633 E-score; under ACAGGGAG, -0.221 E-score.
AAAGAACT returned a binding signal of 0.0138 E-score.
Under ATACTCCA stands 0.208 E-score; under AGTTATTA, 0.0621 E-score; under CAATCTGA, 0.375 E-score.
Under ATCTGTAG stands 0.3 E-score; under ACGGGGTC, -0.201 E-score.
The result for CACGACAA reads -0.0374 E-score.
Turning to AGTACAGC, the binding signal was -0.00849 E-score.
With ACTATAAT, the binding signal turned out to be 0.191 E-score.
In the case of AGTGACCA, the binding signal was -0.067 E-score.
For AGGAGGAT, the binding signal is 0.244 E-score.
In turn, AGATCCAC came in with a binding signal of 0.287 E-score.
As to AAGCGACC, the binding signal is -0.318 E-score.
Turning to ACTACGGG, the binding signal is -0.135 E-score.
The result for AAACGATC reads 0.167 E-score; that for AACCATCA, -0.0776 E-score.
As to AACCAGGC, the binding signal was -0.199 E-score.
The result for AGCTATAG reads -0.139 E-score; that for ATCGCGAG, 0.33 E-score.
